In paper PMC10120764:
Results are given in words; binding and its absence hold for the method and conditions named. In cells and extracts the contact can be indirect. Some entries that bind do so weakly or less than the wild type. For some assays here: Tags and fused reporters may be left off the sequences shown. Blank lines part the entries; values can stand above or below the substance they belong to.

Sequences of proteins named here, by UniProt entry; tags and fusion partners are left off.
UniProt Q8VIM5: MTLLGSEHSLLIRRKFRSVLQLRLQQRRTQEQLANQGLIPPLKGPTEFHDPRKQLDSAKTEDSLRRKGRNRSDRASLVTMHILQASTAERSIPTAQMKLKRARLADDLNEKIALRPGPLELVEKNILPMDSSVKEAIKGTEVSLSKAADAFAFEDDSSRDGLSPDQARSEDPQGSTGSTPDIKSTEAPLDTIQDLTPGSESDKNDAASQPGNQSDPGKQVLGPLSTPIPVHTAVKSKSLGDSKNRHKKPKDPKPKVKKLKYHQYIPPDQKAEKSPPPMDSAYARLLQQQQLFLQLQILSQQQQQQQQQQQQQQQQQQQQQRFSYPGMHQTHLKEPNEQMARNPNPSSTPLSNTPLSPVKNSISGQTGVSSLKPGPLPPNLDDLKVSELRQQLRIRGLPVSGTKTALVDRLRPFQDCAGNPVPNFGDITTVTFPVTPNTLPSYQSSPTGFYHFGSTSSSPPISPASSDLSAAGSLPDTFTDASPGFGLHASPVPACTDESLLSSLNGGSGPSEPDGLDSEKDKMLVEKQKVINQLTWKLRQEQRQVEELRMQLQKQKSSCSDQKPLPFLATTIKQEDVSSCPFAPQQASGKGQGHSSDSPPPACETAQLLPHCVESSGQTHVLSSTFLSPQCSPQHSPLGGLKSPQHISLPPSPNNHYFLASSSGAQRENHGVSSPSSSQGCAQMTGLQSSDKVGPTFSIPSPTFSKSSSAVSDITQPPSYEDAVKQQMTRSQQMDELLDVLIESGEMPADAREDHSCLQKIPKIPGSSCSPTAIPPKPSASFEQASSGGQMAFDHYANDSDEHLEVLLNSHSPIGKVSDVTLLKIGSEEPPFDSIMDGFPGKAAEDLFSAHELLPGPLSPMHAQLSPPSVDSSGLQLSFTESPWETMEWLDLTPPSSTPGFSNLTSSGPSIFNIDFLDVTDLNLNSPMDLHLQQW
UniProt Q8R5A0: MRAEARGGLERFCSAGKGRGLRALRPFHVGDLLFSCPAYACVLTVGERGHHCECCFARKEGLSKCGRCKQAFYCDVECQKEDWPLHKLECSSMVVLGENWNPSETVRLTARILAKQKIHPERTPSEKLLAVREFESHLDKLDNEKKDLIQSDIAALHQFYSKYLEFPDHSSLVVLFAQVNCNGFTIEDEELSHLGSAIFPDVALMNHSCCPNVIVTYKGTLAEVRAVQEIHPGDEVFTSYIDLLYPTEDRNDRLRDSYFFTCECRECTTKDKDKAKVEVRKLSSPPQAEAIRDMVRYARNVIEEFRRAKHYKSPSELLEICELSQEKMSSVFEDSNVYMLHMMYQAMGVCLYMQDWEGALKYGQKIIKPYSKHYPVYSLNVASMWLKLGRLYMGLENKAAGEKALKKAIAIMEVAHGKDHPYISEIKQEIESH
UniProt Q09472: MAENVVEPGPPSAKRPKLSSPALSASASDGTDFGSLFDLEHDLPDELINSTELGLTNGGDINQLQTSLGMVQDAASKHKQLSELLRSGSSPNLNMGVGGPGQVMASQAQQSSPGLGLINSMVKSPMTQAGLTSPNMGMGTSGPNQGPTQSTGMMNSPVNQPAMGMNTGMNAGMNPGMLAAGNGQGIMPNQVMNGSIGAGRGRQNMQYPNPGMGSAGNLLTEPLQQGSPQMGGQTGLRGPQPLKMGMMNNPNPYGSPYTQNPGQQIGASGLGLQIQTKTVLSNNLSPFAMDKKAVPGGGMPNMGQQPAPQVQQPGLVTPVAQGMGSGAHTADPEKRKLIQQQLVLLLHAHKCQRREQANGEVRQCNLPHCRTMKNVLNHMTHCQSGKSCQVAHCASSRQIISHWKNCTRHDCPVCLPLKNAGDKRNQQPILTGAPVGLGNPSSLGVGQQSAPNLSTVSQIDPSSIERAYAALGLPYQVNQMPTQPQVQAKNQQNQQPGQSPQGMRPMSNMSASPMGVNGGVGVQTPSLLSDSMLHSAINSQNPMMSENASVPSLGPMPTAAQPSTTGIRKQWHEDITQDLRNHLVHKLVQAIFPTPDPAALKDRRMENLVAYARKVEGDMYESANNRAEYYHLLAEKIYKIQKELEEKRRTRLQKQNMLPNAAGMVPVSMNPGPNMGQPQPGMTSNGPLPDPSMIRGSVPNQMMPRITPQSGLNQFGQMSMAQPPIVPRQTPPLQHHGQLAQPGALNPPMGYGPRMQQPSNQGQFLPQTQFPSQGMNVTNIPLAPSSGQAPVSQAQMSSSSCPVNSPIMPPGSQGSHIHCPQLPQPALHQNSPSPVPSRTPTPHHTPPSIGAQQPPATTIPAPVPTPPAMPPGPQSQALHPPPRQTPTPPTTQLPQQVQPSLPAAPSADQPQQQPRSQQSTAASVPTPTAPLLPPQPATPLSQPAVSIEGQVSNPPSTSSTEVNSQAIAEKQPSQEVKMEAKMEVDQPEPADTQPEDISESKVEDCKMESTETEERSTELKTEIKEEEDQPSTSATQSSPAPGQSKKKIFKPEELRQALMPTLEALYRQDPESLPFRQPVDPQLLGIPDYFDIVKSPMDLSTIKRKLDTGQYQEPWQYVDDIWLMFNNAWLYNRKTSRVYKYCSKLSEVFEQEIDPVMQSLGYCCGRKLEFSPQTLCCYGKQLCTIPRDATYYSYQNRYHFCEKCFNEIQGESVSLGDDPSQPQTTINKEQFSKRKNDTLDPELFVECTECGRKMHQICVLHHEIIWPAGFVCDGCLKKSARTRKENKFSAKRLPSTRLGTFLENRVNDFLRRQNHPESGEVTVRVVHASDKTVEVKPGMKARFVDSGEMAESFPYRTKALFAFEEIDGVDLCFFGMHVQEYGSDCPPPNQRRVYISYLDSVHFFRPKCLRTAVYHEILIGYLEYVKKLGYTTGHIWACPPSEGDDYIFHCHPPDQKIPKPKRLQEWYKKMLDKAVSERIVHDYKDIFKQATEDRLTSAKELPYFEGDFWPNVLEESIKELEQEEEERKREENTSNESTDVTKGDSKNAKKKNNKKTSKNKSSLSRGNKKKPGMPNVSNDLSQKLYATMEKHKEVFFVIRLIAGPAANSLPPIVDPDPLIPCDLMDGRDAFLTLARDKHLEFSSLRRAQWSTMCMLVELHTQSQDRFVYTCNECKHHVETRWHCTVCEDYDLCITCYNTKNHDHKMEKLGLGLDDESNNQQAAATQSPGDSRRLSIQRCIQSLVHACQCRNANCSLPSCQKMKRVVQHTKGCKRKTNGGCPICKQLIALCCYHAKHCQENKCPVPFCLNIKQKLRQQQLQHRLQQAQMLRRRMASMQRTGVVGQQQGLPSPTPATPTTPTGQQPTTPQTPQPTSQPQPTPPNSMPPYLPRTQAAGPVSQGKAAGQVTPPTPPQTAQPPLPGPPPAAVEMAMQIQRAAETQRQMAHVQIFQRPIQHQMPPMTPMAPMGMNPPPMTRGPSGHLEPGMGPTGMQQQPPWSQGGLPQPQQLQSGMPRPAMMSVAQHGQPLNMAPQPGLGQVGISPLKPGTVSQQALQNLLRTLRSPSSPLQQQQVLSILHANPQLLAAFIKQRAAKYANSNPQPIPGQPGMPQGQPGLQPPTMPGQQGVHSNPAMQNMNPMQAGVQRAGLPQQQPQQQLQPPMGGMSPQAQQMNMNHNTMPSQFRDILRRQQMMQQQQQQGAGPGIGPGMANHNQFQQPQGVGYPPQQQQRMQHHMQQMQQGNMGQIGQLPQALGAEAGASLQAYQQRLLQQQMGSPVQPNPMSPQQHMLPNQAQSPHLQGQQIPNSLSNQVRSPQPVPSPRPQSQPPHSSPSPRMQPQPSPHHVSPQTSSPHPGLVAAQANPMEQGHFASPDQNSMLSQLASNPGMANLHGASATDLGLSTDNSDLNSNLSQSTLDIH

Key:
[1] = biological target: T1, SRF, endogenous in cultured VSMCs (UniProt Q9JM73); assay: co-IP; cultured VSMCs, endogenous proteins; no figure shown
T1 sequence: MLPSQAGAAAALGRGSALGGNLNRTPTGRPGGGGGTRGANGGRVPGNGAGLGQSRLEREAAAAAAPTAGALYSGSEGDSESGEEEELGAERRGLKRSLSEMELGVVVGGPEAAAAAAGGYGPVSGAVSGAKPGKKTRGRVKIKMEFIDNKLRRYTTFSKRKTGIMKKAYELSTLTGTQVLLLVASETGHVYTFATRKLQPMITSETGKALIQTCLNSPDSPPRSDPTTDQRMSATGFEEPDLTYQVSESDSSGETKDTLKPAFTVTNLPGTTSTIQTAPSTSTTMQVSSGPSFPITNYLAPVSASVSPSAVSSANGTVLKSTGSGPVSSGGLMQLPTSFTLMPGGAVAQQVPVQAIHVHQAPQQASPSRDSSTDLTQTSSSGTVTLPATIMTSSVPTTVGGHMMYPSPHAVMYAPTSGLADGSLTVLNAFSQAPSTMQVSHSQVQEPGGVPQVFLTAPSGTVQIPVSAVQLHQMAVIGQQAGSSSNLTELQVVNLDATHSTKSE

[2] = biological target: myocardin, endogenous in primary murine aortic VSMCs (mouse (endogenous in primary murine aortic VSMCs)) (UniProt Q8VIM5); assay: proximity ligation; primary murine aortic VSMCs, serum-starved 24 h, treated with vehicle or PDGF-BB (10 ng/ml) for 24 h, fixed; anti-SMYD2 (mouse) and anti-myocardin (rabbit) with Duolink PLA probes
[3] = biological target: Myc-tagged SMYD2 (SET and MYND domain-containing protein 2) (UniProt Q8R5A0); assay: co-IP; 10T1/2 cells co-transfected with Myc-SMYD2, Flag-myocardin and HA-p300; nuclear extract, IP with anti-Myc antibody (normal rabbit IgG as control) in low salt IP buffer overnight at 4°C; blot with anti-SMYD2 and anti-HA
[4] = biological target: T2, tagged SRF (serum response factor) (UniProt Q9JM73); assay: co-IP; 10T1/2 cells overexpressing tagged SMYD2 and SRF; no figure shown
T2 sequence: T1 sequence

[5] = biological target: Flag-tagged myocardin (UniProt Q8VIM5); assay: co-IP; 10T1/2 cells co-transfected with Myc-SMYD2 and Flag-myocardin for 48 h; 300 ug nuclear extract, IP with anti-Flag antibody (normal rabbit IgG as control) in low salt IP buffer overnight at 4°C, protein A/G beads; blot with anti-SMYD2 and anti-myocardin

binding [1]: no binding
Substance: SMYD2, endogenous in cultured VSMCs (from UniProt Q8R5A0 1-433)

binding [2]: binds
Substance: SMYD2, endogenous in primary murine aortic VSMCs (from UniProt Q8R5A0 1-433)

binding [3]: binds
Substance: HA-tagged p300 (from UniProt Q09472 1-2414)

binding [4]: no binding | binding [5]: binds
Substance: Myc-tagged SMYD2 (SET and MYND domain-containing protein 2) (from UniProt Q8R5A0 1-433)
